Laboratory results as given in patent US20230120736A1, “ANTI-CD98 ANTIBODIES AND ANTIBODY DRUG CONJUGATES” (AbbVie Inc., priority 2016, published 2023).

Legend:
human CD98 = target: T1, human CD98 (Homo sapiens, UniProt P08195); assay: Binding of humanized antibodies to human CD98; details: humanized variants of chAb3 and chAb15
T1 sequence (P08195 1-630 isoform P08195-1): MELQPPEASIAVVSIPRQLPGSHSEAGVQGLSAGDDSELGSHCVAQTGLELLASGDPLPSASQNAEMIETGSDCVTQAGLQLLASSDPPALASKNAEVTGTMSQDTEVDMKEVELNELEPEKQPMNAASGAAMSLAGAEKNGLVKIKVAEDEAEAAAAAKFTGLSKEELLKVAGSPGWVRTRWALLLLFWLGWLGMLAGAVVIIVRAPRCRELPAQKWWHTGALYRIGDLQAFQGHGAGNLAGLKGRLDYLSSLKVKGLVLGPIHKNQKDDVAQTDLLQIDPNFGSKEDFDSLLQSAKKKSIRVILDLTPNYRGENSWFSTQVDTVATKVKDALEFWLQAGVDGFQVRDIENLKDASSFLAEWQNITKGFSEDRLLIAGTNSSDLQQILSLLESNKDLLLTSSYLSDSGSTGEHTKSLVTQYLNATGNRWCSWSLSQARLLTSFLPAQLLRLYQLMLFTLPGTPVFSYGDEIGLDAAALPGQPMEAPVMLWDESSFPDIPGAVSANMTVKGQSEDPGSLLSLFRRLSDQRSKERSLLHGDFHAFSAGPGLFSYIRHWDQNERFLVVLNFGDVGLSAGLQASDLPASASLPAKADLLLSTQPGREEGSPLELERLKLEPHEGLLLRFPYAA

[1] = tested on: cynomolgus monkey CD98 ECD; assay: Biacore surface plasmon resonance binding kinetics (anti-Fc capture); details: cyCD98 ECD
Experimental: (§1) The binding kinetics of these purified mouse and rat monoclonal anti-CD98 antibodies for purified recombinant CD98 protein (extracellular domain, ECD) were determined by surface plasmon resonance-based measurements made on Biacore T100/T200 instruments (GE Healthcare, Piscataway, N.J.) at 25° C. using an anti-Fc capture assay approach. Binding kinetic measurements were made in the assay buffer HBS-EP+: 10 mM Hepes, pH 7.4, 150 mM NaCl, 3 mM EDTA, 0.05% Tween 20). For example, approximately 8000 RU of anti-Fc (species specific) polyclonal antibody (Thermo Fisher Scientific Inc., Rockford, Ill.) diluted in 10 mM sodium acetate (pH 4.5) was directly immobilized across a CM5 research grade biosensor chip using a standard amine coupling kit according to manufacturer's instructions and procedures at 25 μg/ml. Unreacted moieties on the biosensor surface were blocked with ethanolamine. The test antibody to be captured as a ligand was diluted in running buffer to ˜0.5 μg/mL and injected over anti-Fc surface at a flow rate of 10 μL/min. CD98 binding and dissociation were observed under a continuous flow rate of 80 μL/min. Human and cynomolgus monkey CD98 ECDs, both with a C-terminal His-tag, are used for this study (Table 3). After each cycle the anti-Fc capture surface was regenerated using 10 mM Glycine-HCl, pH 1.5. During the assay, all measurements were referenced against the capture surface alone (i.e., with no captured test antibody) and buffer-only injections (no antigen) were used for double referencing. For kinetic analysis, rate equations derived from the 1:1 Langmuir binding model were fitted simultaneously, globally and with mass transfer term included to multiple referenced antigen binding curves using Biacore T100/T200 Evaluation software.
(§2) The in vitro binding activities of the recombinant anti-CD98 chimeric mAbs were measured against both recombinant CD98 extracellular domain proteins (ECDs) and CD98-expressing cells. Briefly, binding kinetics of anti-CD98 chimera mAbs for human and cynomolgus CD98 ECDs were determined by surface plasmon resonance-based measurements as described in Example 4. Table 10 reported the association and dissociation rate constants for CD98 binding, ka (M^−1 s^−1) and kd (s^−1), and the equilibrium dissociation constant KD (M) of the interaction between antibodies and the target antigen. Binding of anti-CD98 chimera mAbs for CD98 on cell surface was evaluated by flow cytometry against CHO-K1 cell line stably transfected to express human CD98 and 3T12 cell line stably transfected to express cynomolgus monkey CD98.
(§3) The binding kinetics of the recombinant anti-CD98 chimeric antibodies for purified recombinant CD98 protein (extracellular domain, ECD) were determined by surface plasmon resonance-based measurements, as described in the Example 4.

human CD98 ECD = target: T2, human CD98 ECD (Homo sapiens, UniProt P08195); assay: as above; details: huCD98 ECD
T2 construct: Human CD98 ECD with C-terminal His-tag
T2 sequence (P08195 with tags, fused parts or gaps): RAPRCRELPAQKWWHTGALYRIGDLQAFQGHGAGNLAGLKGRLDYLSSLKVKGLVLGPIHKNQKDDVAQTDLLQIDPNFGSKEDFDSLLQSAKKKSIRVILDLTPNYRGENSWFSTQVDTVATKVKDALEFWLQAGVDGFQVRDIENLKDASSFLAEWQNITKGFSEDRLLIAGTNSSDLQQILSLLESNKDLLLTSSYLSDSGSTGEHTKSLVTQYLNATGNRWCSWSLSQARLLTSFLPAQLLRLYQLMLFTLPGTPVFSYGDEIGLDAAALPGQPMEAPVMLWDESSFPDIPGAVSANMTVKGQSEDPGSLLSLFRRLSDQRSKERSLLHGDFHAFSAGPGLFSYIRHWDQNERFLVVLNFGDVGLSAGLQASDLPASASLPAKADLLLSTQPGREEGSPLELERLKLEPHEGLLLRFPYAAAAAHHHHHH
Experimental: as §1, §2, §3

[2] = Conjugation of anti-CD98 mAbs with Bcl-xL inhibitor synthons (precipitation, DAR, recovery, aggregation); details: mAb conjugated with Bcl-xL inhibitor synthon CZ, Method A
Experimental: Method A. A solution of BOND-BREAKER tris(2-carboxyethyl)phosphine (TCEP) solution (10 mM, 0.017 mL) was added to a solution of antibody (10 mg/mL, […]) preheated to 37° C. The reaction mixture was kept at 37° C. for 1 hour. The solution of reduced antibody was added to a solution of synthon (3.3 mM, 0.160 mL in DMSO) and gently mixed for 30 minutes. The reaction solution was loaded onto a desalting column (PD10, washed with DPBS 3x before use), followed by DPBS (1.6 mL) and eluted with additional DPBS (3 mL). The purified ADC solution was filtered through a 0.2 micron, low protein-binding 13 mm syringe-filter and stored at 4° C.
Method E. A solution of BOND-BREAKER tris(2-carboxyethyl)phosphine (TCEP) solution (10 mM, 0.017 mL) was added to the solution of antibody (10 mg/mL, 1 mL) at room temperature. The reaction mixture was heated to 37° C. for 75 minutes. The solution of reduced antibody cooled to room temperature and was added to a solution of synthon (10 mM, 0.040 mL in DMSO) followed by addition of boric buffer (0.1 mL, 1M, pH 8). The reaction solution was let to stand for 3 days at room temperature, loaded onto a desalting column (PD10, washed with DPBS 3×5 mL before use), followed by DPBS (1.6 mL) and eluted with additional DPBS (3 mL). The purified ADC solution was filtered through a 0.2 micron, low protein-binding 13 mm syringe-filter and stored at 4° C.

B1: huAb3v1 (antibody, V domains shown)
VH: EVQLVESGGGLVQPGRSLRLSCTTSGFTFIDYYMSWVRQAPGKGLEWLGFIRNKANRYTTEYSASVKGRFTISRDNSKSILYLQMNSLKTEDTAVYYCTRDRPAWFVYWGQGTLVTVSS
VL: DIVMTQSPDSLAVSLGERATINCKSSQSLLYSSNQKNYLAWYQQKPGQSPKLLIYWASTRESGVPDRFSGSGSGTDFTLTISSLQAEDVAVYYCQQYYSYPYTFGGGTKVEIK
Human CD98
  binding to human CD98: maintained binding
[1]
  ka: 40000 M⁻¹ s⁻¹
  kd: 0.00092 s⁻¹
Human CD98 ECD
  ka: 180000 M⁻¹ s⁻¹
  kd: 0.0023 s⁻¹
[2]
  DAR by MS: 3.4
  Key observation for ADC solution during and after conjugation: Cloudy during conjugation; precipitated at 4 °C

B2: huAb3v2 (antibody, V domains shown)
VH: EVQLVESGGGLVQPGRSLRLSCTTSGFTFIDYYMSWVRQAPGKGLEWLGFIRNKAYGYTTEYSASVKGRFTISRDNSKSILYLQMNSLKTEDTAVYYCTRDRPAWFVYWGQGTLVTVSS
VL: DIVMTQSPDSLAVSLGERATINCKSSQSLLYSSNQKNYLAWYQQKPGQSPKLLIYWASTRESGVPDRFSGSGSGTDFTLTISSLQAEDVAVYYCQQYYSYPYTFGGGTKVEIK
Human CD98
  binding to human CD98: maintained binding
[1]
  ka: 29000 M⁻¹ s⁻¹
  kd: 0.00049 s⁻¹
Human CD98 ECD
  ka: 260000 M⁻¹ s⁻¹
  kd: 0.0013 s⁻¹
[2]
  DAR by MS: 3.0
  Key observation for ADC solution during and after conjugation: Precipitated during and after conjugation; aggregation
  aggregation level: level 16.52%
